The other results are listed elsewhere or left out. The energies were worked out here from pooled read counts, against the library average; single values are noisy.
Each sequence was assayed against T1, Pho4 (S. cerevisiae) (UniProt P07270) (assay: relative binding free energy (BET-seq); higher = weaker binding). Details: reference: library average.
T1 sequence: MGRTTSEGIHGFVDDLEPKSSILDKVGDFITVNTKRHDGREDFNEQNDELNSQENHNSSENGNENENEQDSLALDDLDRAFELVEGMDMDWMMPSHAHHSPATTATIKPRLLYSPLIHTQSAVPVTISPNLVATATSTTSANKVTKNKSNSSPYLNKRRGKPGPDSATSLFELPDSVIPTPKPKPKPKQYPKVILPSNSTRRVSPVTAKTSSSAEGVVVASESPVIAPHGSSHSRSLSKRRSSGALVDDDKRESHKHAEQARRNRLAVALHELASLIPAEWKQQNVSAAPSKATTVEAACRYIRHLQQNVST

Relative binding free energy, -0.02 kcal/mol:
GGGGGCACGTGTGCAG, GTTGCCACGTGTATAT, TATGTCACGTGTTAAA, TGTCGCACGTGTAGGA, GTGACCACGTGGTTTT

Relative binding free energy, 0.19 kcal/mol:
CATTTCACGTGGGGGC, ATGTTCACGTGGACGT, GGAGTCACGTGCAGTG

Relative binding free energy, 0.35 kcal/mol:
CGGTTCACGTGTGTTC, GGGTGCACGTGAGATT

Relative binding free energy, -0.05 kcal/mol:
AATTACACGTGGGGCT, ATGTCCACGTGTTTTG, CTTCGCACGTGGTTTT, TGAAACACGTGGTTAA

Relative binding free energy, -0.14 kcal/mol:
TATAGCACGTGTCTTT, GGCGGCACGTGGTCGA

Relative binding free energy, -0.15 kcal/mol:
GTTACCACGTGGGGTA, GCTAGCACGTGTGGTG

Relative binding free energy, -0.08 kcal/mol:
GGTAACACGTGTGTTA, AGTGACACGTGGATGA, TAGGGCACGTGCTGTC, TGGCCCACGTGTTGGG, GTAAGCACGTGGGTAT

Relative binding free energy, -0.19 kcal/mol:
AGTAGCACGTGGTAAG, ACGTGCACGTGCTGTG, TATTGCACGTGGGTAC

Relative binding free energy, -0.09 kcal/mol:
GGTGACACGTGGATAT, TGTGGCACGTGTCAGG, ATGCGCACGTGTTTTA

Relative binding free energy, 0.08 kcal/mol:
TGTGGCACGTGGAAAA, GTCGTCACGTGGTAAT, AGCTGCACGTGTTTTG, TGTGGCACGTGTAATT

Relative binding free energy, -0.21 kcal/mol:
ATGAGCACGTGCTAGT

Relative binding free energy, 0.05 kcal/mol:
TTCGACACGTGTTGGG, AAGATCACGTGCTGGT, AGGTGCACGTGTGATA, TATATCACGTGCTGGT, GAAGGCACGTGTTAGA, TAGCGCACGTGATTTT, TTAATCACGTGGGGAG, TGGTCCACGTGTGCTT

Relative binding free energy, 0.18 kcal/mol:
TGGGTCACGTGTGTGC, TGGTACACGTGTGGAG, TTGTCCACGTGCATTT

Relative binding free energy, 0 kcal/mol:
CTTGACACGTGGATTT, TGGGACACGTGCTGTG, AGTGGCACGTGTTTTG, CTATGCACGTGTGGAT, GTCATCACGTGGGTCT, GGATACACGTGGTAAT

Relative binding free energy, 0.43 kcal/mol:
GGATTCACGTGAGGGT, TCTTTCACGTGAGTTG

Relative binding free energy, 0.07 kcal/mol:
CGTTACACGTGGTTGA, ATAGGCACGTGTGATT, TGTGTCACGTGTCTTG, GTAGACACGTGTTTGA, TGTGTCACGTGGAAGC, GCTAGCACGTGGTTCG

Relative binding free energy, 0.06 kcal/mol:
CGGGTCACGTGTTAGA, TTTGGCACGTGTCGGT, GCCGGCACGTGTGTGG, ATTGACACGTGTGGGT, AAGAGCACGTGGAAGT, TTTGGCACGTGAGACT

Relative binding free energy, 0.34 kcal/mol:
CGGATCACGTGAGGTA, TGGCACACGTGTGAAA

Relative binding free energy, -0.28 kcal/mol:
CTGGCCACGTGGTGGT

Relative binding free energy, -0.03 kcal/mol:
TTTGGCACGTGGATTG, TGATACACGTGGTTTG, AGTATCACGTGGGTGT, CTTTACACGTGGTTTA, TCGCGCACGTGTTAGT, GAGGGCACGTGTGCTT, AGATACACGTGGTCGG, TACTGCACGTGTGGTG

Relative binding free energy, 0.11 kcal/mol:
CGTTCCACGTGTGGTG, TGTTACACGTGCTTTT, GATTGCACGTGGTATT, GGAGTCACGTGGTATC, CTTGACACGTGTAGTA

Relative binding free energy, -0.3 kcal/mol:
GCTGGCACGTGGGGTA

Relative binding free energy, 0.16 kcal/mol:
TGGTTCACGTGTGTCC, GTAGCCACGTGTAGTA, AGTATCACGTGGATAT

Relative binding free energy, 0.22 kcal/mol:
ATATTCACGTGGAGGC, GGTCACACGTGATGGG, AACGTCACGTGTGGTT, ACTATCACGTGTAGGG, GGTTACACGTGGATTC

Relative binding free energy, 0.04 kcal/mol:
AGAAACACGTGGTATG, CTTGGCACGTGAAATG

Relative binding free energy, 0.17 kcal/mol:
TGAATCACGTGGTAAA, TAGCTCACGTGTTAAT, TATGGCACGTGAAGGT

Relative binding free energy, 0.33 kcal/mol:
GTTTTCACGTGTCGGC, GGGATCACGTGAGATT

Relative binding free energy, 0.42 kcal/mol:
GATTTCACGTGGTTGT

Relative binding free energy, 0.23 kcal/mol:
ATGTTCACGTGTTTTA, GAATTCACGTGGGGGA

Relative binding free energy, 0.2 kcal/mol:
TCGGTCACGTGAGGCT, TGTGTCACGTGAATTC, TTTTTCACGTGTTCGT

Relative binding free energy, 0.29 kcal/mol:
TTTGGCACGTGAAAGA, TGTAACACGTGAGAGT

Relative binding free energy, -0.04 kcal/mol:
TTGGGCACGTGTGTGC, GGGGTCACGTGGTCCG, GTCGGCACGTGGTTAG

Relative binding free energy, -0.11 kcal/mol:
TTTGCCACGTGCTTGG, TAAGGCACGTGCTGTT, TTATGCACGTGTATAA, GTTAGCACGTGGCGCT, TTCCGCACGTGGTTGG, TGCGACACGTGGGTCG

Relative binding free energy, 0.03 kcal/mol:
GGCATCACGTGGGTTG, TGGTGCACGTGTTGAT, GATGGCACGTGTAGCT, ATTGGCACGTGTGATG

Relative binding free energy, 0.28 kcal/mol:
GGGTGCACGTGTAGAT, TATATCACGTGTGGGT, GAGTGCACGTGAATGT, GTTGTCACGTGTGTCT, TGGTTCACGTGTAGTC, AGGGTCACGTGAGGGG, TATGTCACGTGAATGC

Relative binding free energy, 0.56 kcal/mol:
GTGCTCACGTGACGGG, GGGTTCACGTGAGGTC

Relative binding free energy, -0.18 kcal/mol:
AGAAGCACGTGGTGTC, TGGGGCACGTGTGACA, ATCAACACGTGGTGTT

Relative binding free energy, -0.2 kcal/mol:
TGTGACACGTGCGTAT, ATGGGCACGTGTCGAT, TGCTGCACGTGGGAAG, CGTTCCACGTGGGGTG

Relative binding free energy, 0.01 kcal/mol:
TATTGCACGTGCGTTG, CGAGACACGTGGTTTT, TTAGGCACGTGTGGTT, TGTGGCACGTGTGACG, GGATGCACGTGGTTAT, TTGAACACGTGGGGAA

Relative binding free energy, -0.07 kcal/mol:
GGTGACACGTGCGCGT, TTCGGCACGTGTTATA

Relative binding free energy, 0.09 kcal/mol:
TTTATCACGTGGAGCA, TAGCACACGTGGTTTG, GTTGACACGTGAAAGG, AATTTCACGTGGCGGT

Relative binding free energy, 0.14 kcal/mol:
TAAATCACGTGGAGGG, AAGGTCACGTGTCTGT, GGTAACACGTGCGTGT, AGTGTCACGTGTCGAT

Relative binding free energy, -0.38 kcal/mol:
CTCTGCACGTGGGGTG

Relative binding free energy, -0.37 kcal/mol:
GCGCGCACGTGGGTGG

Relative binding free energy, 0.12 kcal/mol:
GATAGCACGTGGGGCC, GCTAACACGTGGGGAT, TACTACACGTGGGGCG, ATTTACACGTGACGTG, GAGGTCACGTGATAGG

Relative binding free energy, -0.16 kcal/mol:
AATGCCACGTGGGTGG, AAAGGCACGTGCTGTT

Relative binding free energy, 0.13 kcal/mol:
CTTCACACGTGTTTGG, CTGTCCACGTGTTGGG, CGGATCACGTGTGGTT, AGGTTCACGTGGGCCA, ACGGTCACGTGTGGGC, TTGTACACGTGTAGTC, GGTGTCACGTGGTGAG, TAGAACACGTGATGGG, GTTGACACGTGTGTGC

Relative binding free energy, 0.26 kcal/mol:
CTTTTCACGTGTGTGT, TGTTTCACGTGGTAAA

Relative binding free energy, 0.31 kcal/mol:
ATTTGCACGTGAATGT

Relative binding free energy, 0.1 kcal/mol:
TTGTGCACGTGAGACG, GCATGCACGTGTTTTT, TCGGTCACGTGGCGCG, TATTACACGTGTGTTC, GATATCACGTGGGCTG

Relative binding free energy, 0.39 kcal/mol:
GGCTTCACGTGTTGGA

Relative binding free energy, -0.01 kcal/mol:
GTTTCCACGTGCTGGT, ACTGCCACGTGGTGTG, AGGCACACGTGTTAGT, TGTAACACGTGATTAG

Relative binding free energy, -0.06 kcal/mol:
ATGAACACGTGGTATA, ATGGGCACGTGGAAGG, TATGGCACGTGTGTGG, GGGTGCACGTGCGGAA

Relative binding free energy, 0.38 kcal/mol:
GAGCTCACGTGAGTGT

Relative binding free energy, -0.31 kcal/mol:
CCGGGCACGTGGGTTG

Relative binding free energy, -0.23 kcal/mol:
AGGAGCACGTGGTCAG

Relative binding free energy, -0.12 kcal/mol:
TTGTGCACGTGGCATA, AAGAGCACGTGCGGTA, CGGTACACGTGGGTGC

Relative binding free energy, 0.25 kcal/mol:
GAGTGCACGTGAGCGG, ATAAGCACGTGAGGTG, GTTGACACGTGAGTTT, GTGCTCACGTGGTTAT

Relative binding free energy, 0.37 kcal/mol:
TACTTCACGTGTCGGG

Relative binding free energy, 0.02 kcal/mol:
AGTGGCACGTGTAAGA, ATCGACACGTGTAGTG, GGTTGCACGTGTAGAA, GTCGGCACGTGTTTAA, TTTGACACGTGCGTAA, CGGTGCACGTGTTAAA, TTCAACACGTGGTAGT, TGTTACACGTGGCTGT, GAGGACACGTGGGCGT

Relative binding free energy, -0.1 kcal/mol:
GTGTGCACGTGGTGTT, ACTGACACGTGGTGTT, GAGGACACGTGGGTGG, GGGAGCACGTGTAGAG, CGTGCCACGTGTGGTT, TGTGGCACGTGGATAC, TGTGACACGTGGTATC

Relative binding free energy, 0.51 kcal/mol:
TGATTCACGTGAGATG

Relative binding free energy, 0.44 kcal/mol:
GTGTACACGTGAGACT

Relative binding free energy, -0.26 kcal/mol:
CTAGCCACGTGGGTGG, GCGGGCACGTGCTAGG, TAGGGCACGTGGGCTC

Relative binding free energy, 0.21 kcal/mol:
TTTGTCACGTGAGCGC

Relative binding free energy, -0.29 kcal/mol:
TATAGCACGTGGTCGT

Relative binding free energy, 0.27 kcal/mol:
GGTTTCACGTGTCAGC, TTAGTCACGTGAGCAG

Relative binding free energy, 0.15 kcal/mol:
AAGTACACGTGTGAGT, TCTATCACGTGTTGTA, TGGGACACGTGTGACG

Relative binding free energy, -0.13 kcal/mol:
CTTAGCACGTGTTTAG

Relative binding free energy, 0.32 kcal/mol:
AATTTCACGTGTCGGC, GGGATCACGTGTGCGA, GTGGTCACGTGAGTGT

Relative binding free energy, 0.3 kcal/mol:
TTGGTCACGTGATCAG, TCATTCACGTGTGGAG
